Source: patent publication US5955421A, “Peptides containing D-2-alkyl-Tryptophan” (priority 1990, dated 1999)
At least one peptide structure holds a part that was inferred or is arguable (an end, a ring closure or a residue). Square brackets hold non-standard residues; d marks the D form. Peptide text beside a SMILES is read from it. dTrp(2-Me) = Cc1[nH]c2ccccc2c1C[C@@H](N)C(=O)O

Test system: GH release
Assay: Released GH in ten day-rats, s.c. (Table 9)
Type: in vivo
Conditions: 300 μg/kg s.c., 15 minutes, GH control 10 to 31 ng/ml depending on experiment
Protocol: In vivo activity of these compounds was determined in ten day-rats, which were subcutaneously injected (s.c.) with a dose of 300 μg/kg or with different doses in dose-response studies, according to the procedure as described in Deghenghi et. al, Life Sciences 54, 1321 (1994). The released GH was measured 15 minutes following compound administration.

`Cc1[nH]c2ccccc2c1C[C@@H](NC(=O)[C@H](N)[C@H](C)O)C(=O)N[C@@H](C)C(=O)N[C@@H](Cc1c[nH]c2ccccc12)C(=O)N[C@H](Cc1ccccc1)C(=O)N[C@@H](CCCCN)C(N)=O` [D-Thr-D-Mrp--Ma--Trp-D-Phe--Lys--NH2, D-Thr-D-Mrp-Ala-Trp-D-Phe-Lys-NH2] (H-[dT][dTrp(2-Me)]AW[dF]K-NH2) showed a GH released of 266 ± 20 ng/mL.
Compound `Cc1[nH]c2ccccc2c1C[C@@H](NC(=O)[C@H](Cc1c[nH]cn1)NC(=O)[C@H](N)[C@H](C)O)C(=O)N[C@@H](C)C(=O)N[C@@H](Cc1c[nH]c2ccccc12)C(=O)N[C@H](Cc1ccccc1)C(=O)N[C@@H](CCCCN)C(N)=O` [D-Thr-His-D-Mrp-Ala-Trp-D-Phe-Lys-NH2] (H-[dT]H[dTrp(2-Me)]AW[dF]K-NH2) has a GH released of 86 ± 19 ng/mL.
